Experimental data as given in patent US9493795B2 (Algenol Biofuels Inc., priority 2013, dated 2016).

Test system: alcohol dehydrogenase from Lyngbya sp., wild type, SEQ ID NO: 1
Assay: Km determination of native Adh in cell extract (forward and back reaction), Lyngbya sp.
Type: biochemical
Details: as Example 4: 0.15 mM NADPH, pH 7.5, 30° C.; FIG. 15A

## CCC=O [propanal]
  Vmax (propanal): approximately 0.035 μmol per mg protein and min
